Assay results taken from the supplement of paper PMC3334620.
In all, about 33,000 sequences were measured (“E-score (-0.5 to 0.5)”: median about -0.012, highest 2% from about 0.29 on). This is one part of the list.

target: T1, Ybr033w (UniProt P38073); test: PBM E-score (8-mer binding enrichment) (E-score (-0.5 to 0.5)); higher = stronger / more preferred TF binding; most listed sequences are background and not binding sites; conditions: protein concentration: 200 nM; construct: GST-full length
T1 sequence: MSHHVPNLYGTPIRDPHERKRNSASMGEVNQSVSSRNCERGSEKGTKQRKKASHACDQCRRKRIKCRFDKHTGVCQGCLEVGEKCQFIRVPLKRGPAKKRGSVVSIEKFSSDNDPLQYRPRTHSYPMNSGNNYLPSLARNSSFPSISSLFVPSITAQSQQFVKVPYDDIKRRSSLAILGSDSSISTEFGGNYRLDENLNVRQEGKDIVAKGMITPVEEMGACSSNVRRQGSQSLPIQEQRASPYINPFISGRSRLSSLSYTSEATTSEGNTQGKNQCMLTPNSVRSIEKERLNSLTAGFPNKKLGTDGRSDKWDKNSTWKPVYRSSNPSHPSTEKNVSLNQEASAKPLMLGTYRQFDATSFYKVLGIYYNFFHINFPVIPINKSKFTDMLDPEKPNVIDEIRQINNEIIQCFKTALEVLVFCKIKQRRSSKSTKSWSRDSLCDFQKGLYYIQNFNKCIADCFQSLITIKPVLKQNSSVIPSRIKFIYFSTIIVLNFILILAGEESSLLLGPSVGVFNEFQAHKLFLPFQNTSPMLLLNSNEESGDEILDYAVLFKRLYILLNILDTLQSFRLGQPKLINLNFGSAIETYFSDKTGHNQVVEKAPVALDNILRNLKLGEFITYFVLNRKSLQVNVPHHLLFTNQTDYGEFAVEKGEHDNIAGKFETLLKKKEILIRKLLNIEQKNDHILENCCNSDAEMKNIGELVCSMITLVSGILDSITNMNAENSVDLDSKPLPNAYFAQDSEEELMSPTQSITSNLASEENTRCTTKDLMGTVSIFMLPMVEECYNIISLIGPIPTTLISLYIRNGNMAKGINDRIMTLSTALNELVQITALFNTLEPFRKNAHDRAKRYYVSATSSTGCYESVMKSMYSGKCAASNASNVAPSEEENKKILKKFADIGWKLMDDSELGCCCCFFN
Summary of the method: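 Yeast transcription factors, full-length or as DNA-binding domains, were expressed with a GST tag using PURExpress in vitro transcription/translation. At about 100-200 nM they were applied to universal all-10-mer Agilent arrays, double-stranded by primer extension on fresh or once-stripped slides. Fluorescent anti-GST detected bound protein, and masliner normalised the scans. E-scores for ungapped eight-base words, pooled with reverse complements, came from the Universal PBM Analysis Suite.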

Sequence	PBM E-score
CCAGTTAA	0.192
CCATAGAC	-0.107
GTTATCCA	0.0783
ACTCTGCC	-0.0696
CTGTTTAC	0.163
CTCCTAAC	-0.128
ACCGAGAA	0.132
CCCATTAA	-0.0404
CCACGCGG	-0.291
GAGTGGGA	-0.12
CATGGAAA	0.202
ACAGCAGG	-0.0354
AATCATCA	0.17
ATGACGGA	0.0551
GAAGCATA	-0.0562
GCTATTTA	0.132
ACGCACTG	-0.124
AAAAGACA	0.292
ACAATCAT	0.114
AGTGAATG	0.166
ATGTCTTG	0.168
AAGCGAAG	-0.0636
TACGATCA	0.148
GCGCAAGA	0.0606
ATAGCGCA	0.0412

Sequence	PBM E-score
CGTGTATA	0.179
CCATGGCC	-0.295
CATCCAGC	-0.0524
GGCGGAAC	0.136
AGGCGTCC	-0.168
GAGCTAGA	-0.345
AACAAAAG	0.116
CCCTGAAC	0.114
GACTCTTA	0.0544
CTCTGAGA	-0.195
AAGCCCAT	-0.0465
AACATCAT	0.215
AAGGCCAA	-0.179
AGACCTAT	0.102
CCTATTGA	0.0384
GATGAGAC	0.00284
CTTACTAA	0.143
CGCGAAAG	0.0236
CGGGTCAG	-0.0811
GCTCACCC	-0.227
CTGCCTTC	-0.0378
ATTGCCCA	-0.00783
CTGAGAAG	-0.0783
ACTAACCC	0.0277
GACGGAGA	-0.00157

Sequence	PBM E-score
TCGTGTAA	0.0643
AGTCATCG	-0.126
AAATTAAT	0.314
TGACGCCA	-0.0681
CATATGGA	-0.0514
CCTACACC	-0.0241
GCCTTAGA	-0.136
GAGCCGAC	-0.372
CGCCTATA	-0.149
ATTCATAG	0.19
CCGGAGCA	-0.181
ACCGAACA	0.0621
CAATTGGC	0.0598
GCTTGTAC	0.0199
AGCTCTGC	-0.255
TGTACAAA	0.205
CTGTATAA	0.206
AGAGTTAG	0.0746
AATGTAGA	0.152
AGCTTGCG	-0.11
GACATAGA	-0.149
TACCGCCA	0.0243
CGTATGCC	-0.117
CTCAAAAG	0.0394
TCCATTAA	0.115

Sequence	PBM E-score
GCGCCAGA	-0.172
TTAGCAAA	0.218
GTATCCAC	0.0566
AAAGTGCG	0.0605
TATCTTGA	0.201
CAGCAAAG	0.00381
ATTGGCAG	-0.131
ACGCTGCC	-0.286
AGTCTCTC	-0.134
GTCTCGAA	0.00956
AAACAATA	0.196
ACGTGCAA	-0.197
GTTACGAA	0.0496
GAAACCAC	-0.0602
CAGCCCGC	-0.285
CAAACACG	-0.067
GACTAGAC	-0.162
GCCGTTCC	-0.127
TGCGCTAA	0.141
CAGGGGAC	-0.286
CGATGGCG	-0.127
AATCCGGT	0.282
TATCTGCA	0.00926
ACCTCCCG	-0.241
AAATTCTT	0.176

Sequence	PBM E-score
GGCTCCTA	-0.311
TACAAGGA	0.0745
CTTCACCC	0.0795
GGTGCATA	0.0554
CTGTAAGC	-0.109
CAAGATCG	-0.0792
CTGTGGAA	0.0734
CACTGGGC	-0.175
GCTAATCC	0.101
ATGTAATA	0.275
GCGGACCA	-0.0549
TTGAGAAA	0.262
CAAGAGCC	-0.0471
CTTGAACA	0.112
AAGCCGGA	0.164
AACGTCGC	-0.164
ACAGCTTG	-0.151
CTGCCAGA	-0.111
ACTCCACT	0.0138
TAATGCGA	0.122
CTTTCACC	0.0436
AGTACACC	0.1
CGCAGCTA	0.0259
ATATACCG	0.139
CTGCTGGC	-0.345

Sequence	PBM E-score
AAATATTT	0.357
ACCGTCCG	-0.151
CCACTCTA	0.0325
GACACTCA	-0.0414
AATTTTCA	0.252
GGTAACAC	-0.00323
GGTCCTGA	-0.192
CAGTGGTC	-0.277
CCGGTGCG	-0.229
CAGTCACG	-0.248
CCTTATAC	-0.034
CCTGGTAG	-0.161
CACACGCA	-0.0569
CACACCGG	-0.178
CCTAAGCC	-0.229
CAAACCAG	-0.131
CCCGAACC	-0.157
GGACTACC	-0.133
ACGCCCAC	-0.0937
AAGATGTG	0.154
GGCGTCTA	-0.138
TTAGACAA	0.134
GGTTGTGA	0.00063
AAGAAAAA	0.258
ATGACCTG	-0.0873

Sequence	PBM E-score
GCGCTGAA	-0.0684
ATTACTGA	0.169
CCTCAATA	0.0633
CTACTGAG	-0.0006
TCCAAAGA	0.0237
CGTTGCGA	-0.155
ACGCACCG	-0.179
GAGTACCA	0.122
TATCGTGA	-0.0184
AAACACCT	0.109
AGTTCCAT	0.226
AGGTGTAC	0.0056
ATGCGGTC	0.0769
AATGAGTG	0.174
CTGATCGC	0.00198
CCATGCGA	0.0197
ATCACTAA	0.157
CCCGCCCC	-0.0411
AAGAATCC	0.00137
CCTGCTAG	-0.203
AAGGATGC	-0.0451
AGGCATTC	-0.0335
ACATCTCG	0.098
GACGCAAA	-0.111
GCTGACTA	-0.221

Sequence	PBM E-score
ACTATGCA	-0.00525
TAGCTTAA	0.0971
GAAGCGCC	-0.0866
TAATATAA	0.379
AATCCCTC	0.0521
AGCGCGCA	0.174
CGAGCTTC	0.0666
ATGTCTCG	-0.0693
AGAACCTA	0.123
CCATACTC	-0.104
AAGTTGAA	0.0758
CATTTGCA	0.135
ACCATCTA	0.0217
GCCTATGA	-0.202
AGTTCAAG	0.142
GTCACGCA	0.0466
CACCACTC	0.155
ACTCACTC	-0.1
CAGCAAGC	-0.17
ACCACCGG	-0.0262
AATTGAAC	0.0553
GAGCCCCA	-0.245
AGCGGCAA	-0.143
ACTATAGA	0.153
ACCCCTGG	-0.304

Sequence	PBM E-score
CCATACAG	-0.108
AATCCAAT	0.0841
GCCATAAA	-0.0384
GGTAAACC	-0.0889
GATGGATA	0.0529
ACCTTACT	0.149
TAAGGCGA	0.0361
AACAGAGT	0.141
GTACGTAA	0.0793
AATGCGAA	0.0782
GTTATAAC	-0.0791
ATAACTCG	0.077
CCCAAGAA	-0.0558
AAGCTGTG	0.061
ATGAGCTA	0.0508
GGGATTTA	0.0689
GTTAAATA	0.278
ACCATCAT	0.0599
GAACGGCA	0.0282
